Screen size: about 3,200 compounds; about 110 (3.4%) showed an effect of 50% or more. The list shows a part of the results.
system: T1, V. cholerae SAD30; design: species or system S. aureus MSSA476 (TSB) or V. cholerae SAD30 (LB); 384-well bacterial growth screen at 25 uM, OD600 relative to DMSO control; settings: relative growth, OD600, LB; 25 µM; inhibitor
T1 construct: SAD30

Structure (SMILES) | % of control remaining
CC(Cl)C(=O)N1CCOCC(n2cccn2)C1 (centres unmarked) [6-H22, 2-chloro-1-[6-(1H-pyrazol-1-yl)-1,4-oxazepan-4-yl]propan-1-one] | 103.896%
C=CC(=O)N(C)Cc1cn(C2CC2)cn1 [2-J13, N-[(1-cyclopropyl-1H-imidazol-4-yl)methyl]-N-methylprop-2-enamide] | 90.8135%
C=CC(=O)Nc1ccc(C(=O)N2CCCCC2c2noc(C)n2)cc1 (centres unmarked) [2-C20, N-{4-[2-(5-methyl-1,2,4-oxadiazol-3-yl)piperidine-1-carbonyl]phenyl}prop-2-enamide] | 98.2245%
CC(C)OC(=O)c1ccc(NC(=O)C(C)Cl)cc1 (centres unmarked) [4-K08, propan-2-yl 4-(2-chloropropanamido)benzoate] | 78.499%
C=CC(=O)NCC1CS(=O)(=O)c2ccccc21 (centres unmarked) [3-J15, N-[(1,1-dioxo-2,3-dihydro-1lambda6-benzothiophen-3-yl)methyl]prop-2-enamide] | 89.9724%
CCN(c1ccc(C(=O)CCl)cc1)S(C)(=O)=O [10-F04, N-[4-(2-chloroacetyl)phenyl]-N-ethylmethanesulfonamide] | 100.994%
Cc1cc(C(=O)O)ccc1N1C(=O)C=CC1=O [10-G22, 4-(2,5-dioxo-2,5-dihydro-1H-pyrrol-1-yl)-3-methylbenzoic acid] | 102.864%
CC(=O)Nc1ccsc1C=C(C#N)C(=O)Nc1ccc(F)cc1 [9-F14, 2-cyano-3-(3-acetamidothiophen-2-yl)-N-(4-fluorophenyl)prop-2-enamide] | 86.9477%
Cc1ccc(C)c(NC(=O)C(C#N)=Cc2cccn2C)c1 [8-M07, 2-cyano-N-(2,5-dimethylphenyl)-3-(1-methyl-1H-pyrrol-2-yl)prop-2-enamide] | 71.0401%
C=CC(=O)N1CCC(C(=O)NCc2ccc(S(N)(=O)=O)cc2)CC1 [3-N10, 1-(prop-2-enoyl)-N-[(4-sulfamoylphenyl)methyl]piperidine-4-carboxamide] | 97.9121%
CC(Cl)C(=O)NCCc1ccc[nH]1 (centres unmarked) [7-L09, 2-chloro-N-[2-(1H-pyrrol-2-yl)ethyl]propanamide] | 83.2645%
CC(Cl)C(=O)NCCN1CCn2nccc2C1 (centres unmarked) [5-D13, 2-chloro-N-(2-{4H,5H,6H,7H-pyrazolo[1,5-a]pyrazin-5-yl}ethyl)propanamide] | 95.6604%
Cc1ccccc1NC(=O)C(C#N)=Cc1c(Cl)nc2ccccn12 [9-I22, 3-{2-chloroimidazo[1,2-a]pyridin-3-yl}-2-cyano-N-(2-methylphenyl)prop-2-enamide] | 95.5133%
C=CC(=O)N1CCOCC1CC(=O)c1ccco1 (centres unmarked) [2-M17, 1-{3-[2-(furan-2-yl)-2-oxoethyl]morpholin-4-yl}prop-2-en-1-one] | 90.8135%
NC(=O)c1cc(-c2ccccc2)sc1NC(=O)CCl [6-M14, 2-(2-chloroacetamido)-5-phenylthiophene-3-carboxamide] | 89.9422%
O=C(CCl)NC1CCSc2ccc(F)cc21 (centres unmarked) [5-M09, 2-chloro-N-(6-fluoro-3,4-dihydro-2H-1-benzothiopyran-4-yl)acetamide] | 100.872%
C=CC(=O)NCc1nc(C(=O)O)c(C)s1 [1-K03, 5-methyl-2-[(prop-2-enamido)methyl]-1,3-thiazole-4-carboxylic acid] | 101.495%
N#CC(=Cc1ccc(N)cc1)C(=O)N1CCCC1 [9-E14, 3-(4-aminophenyl)-2-(pyrrolidine-1-carbonyl)prop-2-enenitrile] | 85.1801%
O=C(CCl)NCc1ccccc1OC1CCCC1 [6-C14, 2-chloro-N-{[2-(cyclopentyloxy)phenyl]methyl}acetamide] | 88.5771%
COCc1nnc([C@]23CC[C@H]2CCN3C(=O)C(C)Cl)o1 (mixture of isomers) [5-H15, rac-2-chloro-1-[(1R,5R)-1-[5-(methoxymethyl)-1,3,4-oxadiazol-2-yl]-2-azabicyclo[3.2.0]heptan-2-yl]propan-1-one] | 96.501%
CC(C)NC(=O)C(C#N)=Cc1ccc(Cl)c(Cl)c1 [9-M07, 2-cyano-3-(3,4-dichlorophenyl)-N-(propan-2-yl)prop-2-enamide] | 83.0048%
CCC(=O)Nc1ccc(C(=O)CCl)cc1 [10-C03, N-[4-(2-chloroacetyl)phenyl]propanamide] | 111.903%

Structure (SMILES) | % of control remaining
CC(Cl)C(=O)NC[C@H]1CCCN(C2CC2)[C@@H]1c1ccnn1C (mixture of isomers) [6-P20, rac-2-chloro-N-{[(2R,3S)-1-cyclopropyl-2-(1-methyl-1H-pyrazol-5-yl)piperidin-3-yl]methyl}propanamide] | 98.7392%
C=CC(=O)N1CCn2c(cnc2C(F)(F)F)C1 [3-B16, 1-[3-(trifluoromethyl)-5H,6H,7H,8H-imidazo[1,5-a]pyrazin-7-yl]prop-2-en-1-one] | 108.322%
CC(C)NC(=O)C(C#N)=Cc1ccc(-c2ccccc2F)o1 [8-K18, 2-cyano-3-[5-(2-fluorophenyl)furan-2-yl]-N-(propan-2-yl)prop-2-enamide] | 53.7729%
Cn1ccc(NC(=O)C(C#N)=Cc2ncccc2C(F)(F)F)n1 [8-F17, 2-cyano-N-(1-methyl-1H-pyrazol-3-yl)-3-[3-(trifluoromethyl)pyridin-2-yl]prop-2-enamide] | 68.7288%
N#CC(=Cc1ccc(Cl)cc1)C(N)=O [8-L21, 3-(4-chlorophenyl)-2-cyanoprop-2-enamide] | 77.9742%
C=CC(=O)N1CCC(C(=O)N2CCC(CC(N)=O)C2)CC1 (centres unmarked) [2-J14, 2-{1-[1-(prop-2-enoyl)piperidine-4-carbonyl]pyrrolidin-3-yl}acetamide] | 89.8871%
CCCCNC(=O)C(C#N)=Cc1c(Cl)nc2ccccn12 [9-O09, N-butyl-3-{2-chloroimidazo[1,2-a]pyridin-3-yl}-2-cyanoprop-2-enamide] | 88.1713%
Cl.O=C(CCl)NC1(c2nc(-c3ccccc3)c[nH]2)CCCC1 [7-J08, 2-chloro-N-[1-(4-phenyl-1H-imidazol-2-yl)cyclopentyl]acetamide hydrochloride] | 90.1371%
CC(Cl)C(=O)N1CCN(c2cc(-c3ccccc3F)n[nH]2)CC1 (centres unmarked) [6-N20, 2-chloro-1-{4-[3-(2-fluorophenyl)-1H-pyrazol-5-yl]piperazin-1-yl}propan-1-one] | 84.7853%
C=CC(=O)N1CCCC(CNS(=O)(=O)C2CC2)C1 (centres unmarked) [3-G21, N-{[1-(prop-2-enoyl)piperidin-3-yl]methyl}cyclopropanesulfonamide] | 99.1472%
Cc1cc(C(=O)CCl)c(C)n1C(c1ccccc1)c1ccccc1 [10-I08, 2-chloro-1-[1-(diphenylmethyl)-2,5-dimethyl-1H-pyrrol-3-yl]ethan-1-one] | 92.8891%
C=CC(=O)NCCn1cc(C2CCOC2)cn1 (centres unmarked) [2-L09, N-{2-[4-(oxolan-3-yl)-1H-pyrazol-1-yl]ethyl}prop-2-enamide] | 89.7327%
C=CC(=O)NCCC(=O)N1CCC(C)(C)S(=O)(=O)CC1 [3-G19, N-[3-(7,7-dimethyl-1,1-dioxo-1lambda6,4-thiazepan-4-yl)-3-oxopropyl]prop-2-enamide] | 95.9713%
CCNC(=O)C(C#N)=Cc1ccc(OC(F)F)cc1 [8-E05, 2-cyano-3-[4-(difluoromethoxy)phenyl]-N-ethylprop-2-enamide] | 78.3821%
O=C(NC1CCCN(C(=O)CCl)C1)c1cc2ccccc2o1 (centres unmarked) [5-D05, N-[1-(2-chloroacetyl)piperidin-3-yl]-1-benzofuran-2-carboxamide] | 103.058%
C=CC(=O)N1Cc2ccccc2C[C@@H]1C(=O)NC1CC1 [2-G06, (3R)-N-cyclopropyl-2-(prop-2-enoyl)-1,2,3,4-tetrahydroisoquinoline-3-carboxamide] | 95.7541%
CC(Cl)C(=O)Nc1c(Cl)cc(Cl)cc1Cl (centres unmarked) [6-K09, 2-chloro-N-(2,4,6-trichlorophenyl)propanamide] | 82.8135%
C=CC(=O)NCc1cccc2c1OCO2 [1-E07, N-[(1,3-dioxaindan-4-yl)methyl]prop-2-enamide] | 92.8251%
C=CC(=O)N1CCC(C(=O)NCCc2c(C)n[nH]c2C)CC1 [2-D04, N-[2-(3,5-dimethyl-1H-pyrazol-4-yl)ethyl]-1-(prop-2-enoyl)piperidine-4-carboxamide] | 106.099%
CCOC(=O)c1cnn2ccc(NC(=O)C(C)Cl)cc12 (centres unmarked) [5-N21, ethyl 5-(2-chloropropanamido)pyrazolo[1,5-a]pyridine-3-carboxylate] | 92.1299%
CC(C)Oc1ccccc1C=C(C#N)C(=O)Nc1ccc(Cl)cc1 [9-L20, N-(4-chlorophenyl)-2-cyano-3-[2-(propan-2-yloxy)phenyl]prop-2-enamide] | 86.2678%
C=CC(=O)NCc1cc(C(F)(F)C(F)(F)F)on1 [3-B19, N-{[5-(1,1,2,2,2-pentafluoroethyl)-1,2-oxazol-3-yl]methyl}prop-2-enamide] | 110.086%

Source: paper PMC11995724, “Antibiotic target discovery by integrated phenotypic and activity-based profiling of electrophilic fragments” (Cell chemical biology, 2025)
